According to the supplement of paper PMC10670038:
Structures can show the parent of a compound that is named as a salt. ± gives the standard deviation of the averaged measurements. Over roughly 2,000 compounds, “relative cell viability vs DMSO, compound alone” has its median near 1.1; the lowest 2% begin near 0.29. The list shows a part of the results.

system: TE10; test: relative cell viability vs DMSO, compound alone (fraction); TE10 is an esophageal squamous carcinoma line; higher = less cytotoxic; details: 2 µM; 48 h
Description: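 TE10 ESCC cells (1,000/well, 384-well plates) were treated with Selleck bioactive library compounds at 2 uM alone for 48 h. Viability was read by CellTiter-Glo and expressed relative to DMSO wells. Two technical replicates (A, B).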

SMILES	relative cell viability
C[C@H](CCC(=O)O)[C@H]1CC[C@H]2[C@@H]3CC[C@@H]4C[C@H](O)CC[C@]4(C)[C@H]3CC[C@]12C [Lithocholic acid]	1.13 ± 0.015
Cn1c(Nc2ccc(C(F)(F)F)cc2)nc2cc(Oc3ccnc(-c4ncc(C(F)(F)F)[nH]4)c3)ccc21	0.792 ± 0.036
O=C(NO)c1ccc(CC(=O)N(CCO)c2ccccc2)cc1	1.02 ± 0.028
COC(=O)C1=C(C)NC(C)=C(C(=O)OC(C)C)C1c1cccc2nonc12 (stereo unspecified) [Isradipine]	1.019 ± 0.003
CCOC(=O)Nc1ccc(NCc2ccc(F)cc2)nc1N [Flupirtine maleate]	1.22 ± 0.057
O=C(O)CCCC[C@@H]1SC[C@@H]2NC(=O)N[C@@H]21 [Biotin (Vitamin B7)]	0.999 ± 0.036
O=C(/C=C/N1C[C@H]2C[C@@H]1CN2c1ccccn1)c1ccccc1O	1.06 ± 0.02
CC(C)C(=O)Nc1ccc([N+](=O)[O-])c(C(F)(F)F)c1 [Flutamide]	0.874 ± 0.037
Cn1cnc([N+](=O)[O-])c1Sc1ncnc2[nH]cnc12 [Azathioprine]	1.01 ± 0.12
CC(=O)Oc1cc2c(s1)CCN(C(C(=O)C1CC1)c1ccccc1F)C2 (stereo unspecified) [Prasugrel]	1.139 ± 0.0097
CN(C)[C@@H]1C(=O)C(C(N)=O)=C(O)[C@@]2(O)C(=O)C3=C(O)c4c(O)ccc(Cl)c4[C@@H](O)[C@H]3C[C@@H]12 [Demeclocycline HCl]	1.24 ± 0.11
CC1(C)CCC2=C(O1)c1ccccc1C(=O)C2=O [Beta-Lapachone]	1.03 ± 0.022
CC(=O)OCC[N+](C)(C)C [Acetylcholine Chloride]	1 ± 0.025
S=C(NCc1ccc2c(c1)OCO2)N1CCN(c2ncnc3c2oc2ccccc23)CC1 [Amuvatinib (MP-470)]	1.06 ± 0.18
CC(C)(O)C1CCC(C)(C2C(O)CC3(C)C4CC(OC5OC(CO)C(O)C(O)C5O)C5C(C)(C)C(OC6OCC(O)C(O)C6O)CCC56CC46CCC23C)O1 (stereo unspecified) [Astragaloside A]	0.916 ± 0.18
OCCN1C[C@H](O)[C@@H](O)[C@H](O)[C@H]1CO [Miglitol]	1.16 ± 0.064
COc1cc(/C=C/C(=O)CC(=O)/C=C/c2ccc(O)c(OC)c2)ccc1O [Curcumin]	0.893 ± 0.054
O=C(O)CSCC(=O)NC1CCSC1=O (stereo unspecified) [Erdosteine]	0.991 ± 0.11

SMILES	relative cell viability
Cc1cc2c(F)c(Oc3ncnn4cc(OC[C@@H](C)O)c(C)c34)ccc2[nH]1	0.948 ± 0.065
Nc1nc(O)c2ncn(CCC(CO)CO)c2n1 [Penciclovir]	1.06 ± 0.11
Fc1ccc([C@@H]2CCNC[C@H]2COc2ccc3c(c2)OCO3)cc1 [Paroxetine HCl]	0.9899 ± 0.0077
CN(C/C=C/C#CC(C)(C)C)Cc1cccc2ccccc12 [Terbinafine]	1.14 ± 0.02
CN(C/C=C/C#CC(C)(C)C)Cc1cccc2ccccc12 [Terbinafine HCl]	1.09 ± 0.032
CN1CCN(c2ccc(OC(F)(F)F)c(Nc3ncc4c(n3)-c3c(c(C(N)=O)nn3CCO)CC4)c2)CC1	0.887 ± 0.031
CCCC(=O)OCOC(=O)C1=C(C)NC(C)=C(C(=O)OC)C1c1cccc(Cl)c1Cl (stereo unspecified) [Clevidipine Butyrate]	0.897 ± 0.12
C[C@H]1COc2c(N3CCN(C)CC3)c(F)cc3c(=O)c(C(=O)O)cn1c23 [Levofloxacin]	1.03 ± 0.032
NC(CO)C(=O)NNCc1ccc(O)c(O)c1O (stereo unspecified) [Benserazide HCl]	0.799 ± 0.028
O=c1[nH]cnc2[nH]ncc12 [Allopurinol Sodium]	0.9331 ± 0.0065
CN1CCN(C2CCN(C(=O)Nc3cc(Oc4ccc(NC(=O)C5(C(=O)Nc6ccc(F)cc6)CC5)c(F)c4)ccn3)CC2)CC1 [Golvatinib (E7050)]	1.21 ± 0.05
C[N+](C)(C)CCO.[Cl-] [Choline Chloride]	1.1377 ± 4.2e-05
CCOC(=O)[C@H](CCc1ccccc1)N[C@@H](C)C(=O)N1Cc2cc(OC)c(OC)cc2C[C@H]1C(=O)O [Moexipril HCl]	1.03 ± 0.025
COC(=O)c1ccc2c(C(=Nc3ccc(N(C)C(=O)CN4CCN(C)CC4)cc3)c3ccccc3)c(O)[nH]c2c1 [Nintedanib (BIBF 1120)]	0.998 ± 0.014
Cn1cc(-c2ccc3nnc(Sc4ccc5ncccc5c4)n3n2)cn1	1.09 ± 0.14
Clc1ccc(Nc2nnc(Cc3ccncc3)c3ccccc23)cc1 [Vatalanib (PTK787) 2HCl]	1.16 ± 0.022
Cc1cc(O)c2c(c1)C(=O)c1cc(O)cc(O)c1C2=O [Emodin]	0.949 ± 0.07
O=C1NC(=O)/C(=C/c2cccc(C(F)(F)F)c2)S1	1.1918 ± 0.00074
